Laboratory results published in the supplement of paper PMC8728848.
The list shows a part of the results.

Columns and labels:
Experiment in all cases: glycan array binding signal (z-score within array); higher = stronger binding
Settings in all cases: glycan notation: IUPAC condensed, linker removed
[1] = biological target: Gal(b1-4)GlcNAc(b1-6)Gal(b1-4)GlcNAc
In short: (§1)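 Glycan array data came from 3228 arrays in the Consortium for Functional Glycomics database, and only arrays with an available protein sequence were kept. Glycan names were put into IUPAC-condensed notation, and columns mapping to the same glycan were averaged. The binding signal is a within-array Z-score, averaged across arrays of one protein sequence run at different concentrations or buffers and across linkers. A negative Z-score can be read as non-binding.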

[2] = biological target: Gal(b1-4)GlcNAc(b1-6)Gal(b1-4)GlcNAc(b1-6)GalNAc
In short: as §1

[3] = biological target: Gal(b1-4)GlcNAc(b1-6)GalNAc
In short: as §1

[4] = biological target: Gal(b1-4)GlcNAc(b1-6)[Gal(b1-3)]GalNAc
In short: as §1

[5] = biological target: Gal3S(b1-3)GalNAc
In short: as §1

[6] = biological target: Gal3S(b1-3)GlcNAc
In short: as §1

[7] = biological target: Gal3S(b1-3)[Fuc(a1-4)]GlcNAc
In short: as §1

[8] = biological target: Gal3S(b1-4)Glc
In short: as §1

[9] = biological target: Gal3S(b1-4)Glc6S
In short: as §1

[10] = biological target: Gal3S(b1-4)GlcNAc
In short: as §1

[11] = biological target: Gal3S(b1-4)GlcNAc6S
In short: as §1

[12] = biological target: Gal3S(b1-4)[Fuc(a1-3)]Glc
In short: as §1

[13] = biological target: Gal3S4S(b1-4)GlcNAc
In short: as §1

[14] = biological target: Gal3S6S(b1-4)GlcNAc
In short: as §1

[15] = biological target: Gal3S6S(b1-4)GlcNAc6S
In short: as §1

[16] = biological target: Gal4S(b1-4)GlcNAc
In short: as §1

[17] = biological target: Gal4S6S(b1-4)GlcNAc
In short: as §1

[18] = biological target: Gal6S(b1-4)Glc
In short: as §1

[19] = biological target: Gal6S(b1-4)Glc6S
In short: as §1

[20] = biological target: Gal6S(b1-4)GlcNAc
In short: as §1

[21] = biological target: Gal6S(b1-4)GlcNAc6S
In short: as §1

[22] = biological target: GalNAc(a1-3)Gal
In short: as §1

[23] = biological target: GalNAc(a1-3)GalNAc
In short: as §1

[24] = biological target: GalNAc(b1-3)Gal
In short: as §1

[25] = biological target: GalNAc(b1-3)Gal(a1-4)Gal(b1-4)GlcNAc
In short: as §1

[26] = biological target: GalNAc(b1-3)Gal(a1-4)Gal(b1-4)GlcNAc(b1-3)Gal(b1-4)Glc
In short: as §1

[27] = biological target: GalNAc(b1-3)GalNAc
In short: as §1

[28] = biological target: GalNAc(b1-4)GlcNAc
In short: as §1

[29] = biological target: GalNAc(b1-4)GlcNAc(b1-2)Man(a1-3)[GalNAc(b1-4)GlcNAc(b1-2)Man(a1-6)]Man(b1-4)GlcNAc(b1-4)GlcNAc
In short: as §1

[30] = biological target: Glc(a1-4)Glc
In short: as §1

[31] = biological target: Glc(a1-6)Glc(a1-6)Glc
In short: as §1

[32] = biological target: Glc(b1-4)Glc
In short: as §1

[33] = biological target: Glc(b1-6)Glc
In short: as §1

[34] = biological target: GlcA(b1-3)Gal
In short: as §1

[35] = biological target: GlcA(b1-3)GlcNAc
In short: as §1

[36] = biological target: GlcA(b1-6)Gal
In short: as §1

[37] = biological target: GlcNAc(a1-3)Gal(b1-4)GlcNAc
In short: as §1

B1: Neuropilin-1 (Homo sapiens), O14786 (protein)
chain: FKCMEALGMESGEIHSDQITASSQYSTNWSAERSRLNYPENGWTPGEDSYREWIQVDLGLLRFVTAVGTQGAISKETKKKYYVKTYKIDVSSNGEDWITIKEGNKPVLFQGNTNPTDVVVAVFPKPLITRFVRIKPATWETGISMRFEVYGCKITDYPCSGMLGMVSGLISDSQITSSNQGDRNWMPENIRLVTSRSGWALPPAPHSYINEWLQIDLGEEKIVRGIIIQGGKHRENKVFMRKFKIGYSNNGSDWKMIMDDSKRKAKSFEGNNNYDTPELRTFPALSTRFIRIYPERATHGGLGLRMELLGCEVE
Q: Which results are given for B1?
A: glycan array binding signal (z-score) [1]: -0.264; glycan array binding signal (z-score) [2]: -0.09; glycan array binding signal (z-score) [3]: -0.233; glycan array binding signal (z-score) [4]: -0.272; glycan array binding signal (z-score) [5]: -0.259; glycan array binding signal (z-score) [6]: -0.106; glycan array binding signal (z-score) [7]: -0.223; glycan array binding signal (z-score) [8]: -0.292; glycan array binding signal (z-score) [9]: -0.16; glycan array binding signal (z-score) [10]: -0.294; glycan array binding signal (z-score) [11]: -0.154; glycan array binding signal (z-score) [12]: 0.036; glycan array binding signal (z-score) [13]: -0.199; glycan array binding signal (z-score) [14]: -0.196; glycan array binding signal (z-score) [15]: -0.15; glycan array binding signal (z-score) [16]: -0.235; glycan array binding signal (z-score) [17]: -0.012; glycan array binding signal (z-score) [18]: -0.175; glycan array binding signal (z-score) [19]: 0.166; glycan array binding signal (z-score) [20]: -0.225; glycan array binding signal (z-score) [21]: 0.147; glycan array binding signal (z-score) [22]: -0.188; glycan array binding signal (z-score) [23]: -0.255; glycan array binding signal (z-score) [24]: -0.291; glycan array binding signal (z-score) [25]: -0.216; glycan array binding signal (z-score) [26]: -0.299; glycan array binding signal (z-score) [27]: -0.225; glycan array binding signal (z-score) [28]: 0.04; glycan array binding signal (z-score) [29]: 0.263; glycan array binding signal (z-score) [30]: -0.252; glycan array binding signal (z-score) [31]: -0.316; glycan array binding signal (z-score) [32]: -0.188; glycan array binding signal (z-score) [33]: -0.271; glycan array binding signal (z-score) [34]: -0.271; glycan array binding signal (z-score) [35]: -0.253; glycan array binding signal (z-score) [36]: -0.189; glycan array binding signal (z-score) [37]: -0.186
